± gives the standard deviation of the averaged measurements. The list shows a part of the results.
Each sequence was assayed on PfAP2-I AP2 domain 3 (GST-tagged) (assay: gcPBM binding intensity (ln(normalized median fluorescence intensity)); higher = stronger DNA binding).
Method in brief: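 After 1 h on an Agilent 4 × 180k array of primer-extended double-stranded 36-bp intergenic genomic probes and negative controls, bound GST-tagged P. falciparum DNA-binding domains were detected with Alexa488 anti-GST antibody and scanned at 488 nm. The domains had been expressed in E. coli, and binding took place in 1× PBS with 1% milk, 0.2 mg/ml BSA, 0.5% salmon testes DNA and 0.03% Triton X-100. Binding intensity is the highest Masliner-normalised natural-log median intensity across replicate spots of either probe orientation.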

Sequence | gcPBM binding intensity (ln)
AAAAAAAAAATATATATATATATATATATATAATTT [GTGCAC_negctrl_site32] | 8.13 ± 0.38
AAGAAAAAAATTTATACAAGAATTTTTTATTATTAA [TGCATGCA_negctrl_site587] | 7.18 ± 0.69
TAATTGTACGCCAATACACACAGAATTAGAATGTAG [CACACA_site102] | 8.04 ± 0.44
ATAAATAAATGGTGTTGTACTCTATTATATATATAT [XGTACX_site7835] | 8.88 ± 0.11
TGTTAATTAAAGGACTGTACACTAATAATTCTATAA [XGTACX_site5195] | 7.9 ± 0.26
TCATATGTTTCATGTTGTACATTGAAAGTTTGGCTA [XGTACX_site3202] | 7.52 ± 0.48
AAATATGTACATATTATATATATATAATATATATTG [TGCATGCA_negctrl_site438] | 7.54 ± 0.25
GTTCTAATATATTGCACACGTAAAAATATAGGTAAT [CACACA_site886] | 10.3 ± 0.61
AATGTATATAATATTAATATGTAAATATATAATCAA [CACACA_negctrl_site1683] | 7.68 ± 0.57
TTAAAAAGTGCGTAGTGTACTAATATAAATAATACA [XGTACX_site2922] | 8.96 ± 0.27
TGAATAAATATATATACACACCCATATATATATATA [CACACA_site8833] | 9.28 ± 0.42
ATTATTATATATATAACACACATAATTATATACTTA [CACACA_site1563] | 7.89 ± 0.38
TATACCTATAAATACACACACATATATAAATATGTA [CACACA_site6625] | 7.64 ± 0.25
AAATAAAAACCATATCGTACAAAAATTTTTGTATTT [XGTACX_site7497] | 7.82 ± 0.64
ATATATATATATATATGTACTTAAAAATTTGTTTTG [XGTACX_site1514] | 9.21 ± 0.085
GATCACTGAATAAAGGCACACATCTGACTAATTTTT [CACACA_site66] | 8.56 ± 0.37
AAGTCAATTTTTTTTTTTTTTTTTTAACTTATTAAT [TGCATGCA_negctrl_site14] | 7.29 ± 0.67
TTTATTTATTATTAAAGTACTAAATCATATTATTAT [XGTACX_site992] | 7.52 ± 0.21
TATACATTATCTTATGCATGCGCATCTGCATATAAA [TGCATGCA_site266] | 8.25 ± 0.61
TTTTCTTTTTTCTGTTGTACTAAAAATAATTTTGTA [XGTACX_site5171] | 7.79 ± 0.39
TATTTATATATTATGTGTCCACATGTAAGCTATCTT [XGTACX_site3887] | 8.01 ± 0.36
CCACTAATAAATATTACACACATATATATATATATT [CACACA_site3128] | 7.88 ± 0.44

Sequence | gcPBM binding intensity (ln)
CTCATCCTTACATACACACACATATATATATATATA [CACACA_site103] | 9.29 ± 0.33
ATATTTAAATCGAAGGTGCGTATTTCCTTTTTTTTT [GTGCAC_site9632] | 9.01 ± 0.057
ATTCATTTCTATTTTACACACAATAAGTAACTTAAT [CACACA_site2850] | 8.21 ± 0.38
AGTATAAATAAATCATAAACATATATATATATATAT [GTGCAC_negctrl_site356] | 9.24 ± 0.31
ATATATACATATAACACACACATATATATATATATA [CACACA_site2575] | 9.16 ± 0.45
AAAAAAATAACAAAATGTATACAATATAACAAAAAT [GTGCAC_negctrl_site512] | 7.96 ± 0.7
AACATATACCCAGGTACATGCAAATATATATATTAT [TGCATGCA_site878] | 8.05 ± 0.64
ATATATATATATATGTGTACACAACAAAATAAAAAA [XGTACX_site7378] | 9.43 ± 0.48
TTCTTTCTTCAAAAGTGTACCAAATGTTAGAAAGGT [XGTACX_site4353] | 8.18 ± 0.52
TTTAAAAATTAATTCTGTACACATTTTTATTTTATT [XGTACX_site8] | 7.71 ± 0.39
AATATATGAATTATATGTACATATAGATAAGTCACA [XGTACX_site7637] | 7.96 ± 0.48
TATTATAGAAATTTAATGTTGGACAAAAAAATGAAA [CACACA_negctrl_site1351] | 7.87 ± 0.46
TCTTAATATCGTTTCTCACACATATACAAACATAAA [CACACA_site5700] | 8.09 ± 0.57
AAATTATTTATTTTATGTACATATTATTAAAGTTAA [XGTACX_site552] | 7.83 ± 0.26
AGAGAGAAAGCTATAACATGCAACAATTTTTAGAAC [TGCATGCA_site596] | 7.82 ± 0.88
ATAAATGACAAATTAACACACATATATTATAGATAT [CACACA_site7770] | 7.72 ± 0.28
TAATGCATTTTCGCATGTACATATTTCTCTTTATAT [XGTACX_site8915] | 7.75 ± 0.69
ATCTATATTTAATTTACACACAAAAAAAATTGTTGG [CACACA_site6582] | 7.92 ± 0.42
AAAATGTGATATGTAAATATATATGTATGTATATAT [CACACA_negctrl_site1748] | 7.89 ± 0.38
ATAATATTAATATGTACACACCTTAATCCTTAAAAG [CACACA_site7640] | 8.03 ± 0.35
TATACCTGAATTAAAAGTACATGTATATATTTTCCC [XGTACX_site3594] | 7.6 ± 0.4
ATAATTTTTTAAGTGTGTACTAAAATGTGTATTTTA [XGTACX_site6227] | 7.95 ± 0.18

From the supplement of paper PMC11417369
